In the supplement of paper PMC11417369:
± gives the standard deviation of the averaged measurements. This is one part of the list.

Test system: PfAP2-EXP AP2 domain (GST-tagged)
Experiment: gcPBM binding intensity (ln(normalized median fluorescence intensity)); higher = stronger DNA binding
In short: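 For binding intensity, the highest Masliner-normalised natural-log median intensity across replicate spots of either probe orientation was taken. Protein bound to the array was stained with Alexa488 anti-GST antibody and scanned at 488 nm. The protein, GST-tagged P. falciparum DNA-binding domains from E. coli at about 25 μg on average, had been applied for 1 h to an Agilent 4 × 180k array of primer-extended double-stranded 36-bp intergenic genomic probes and negative controls.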

Row | Sequence | gcPBM binding intensity (ln)
1 | ATTATCCATGCATTTACACACACACTAATAAAAATT [CACACA_site9358] | 8.95 ± 0.38
2 | ATTCAAAATAATCACAGTACACATGAGATTATCTTT [XGTACX_site2197] | 8.31 ± 0.57
3 | TAATTTCTTATGTATTGTACAAATAATATATTATTT [XGTACX_site3066] | 8.85 ± 0.46
4 | TTATTGAAAAACATAATATCTAAGAGGGTAATATAT [GTGCAC_negctrl_site599] | 8.46 ± 0.45
5 | TTAATATGGAAATGTTGTACATTTCTTGAAGCATTC [XGTACX_site525] | 8.26 ± 0.23
6 | ACTTCATAAACATTTTGTACGTATGTATCTTTTTAT [XGTACX_site7012] | 8.97 ± 0.38
7 | TCCTTAGAAATATTGATCATAAACTGGAAAGGTATA [XGTACX_negctrl_site354] | 8.59 ± 0.37
8 | TGGAAACAAAAACACACACACAAAAAAAAAAAAAAA [CACACA_site3209] | 8.12 ± 0.67
9 | TGTATTATTAATATTTGTACGTAATAATAAAAACAT [XGTACX_site3716] | 8.62 ± 0.36
10 | GAAATATATAAATTGACACACACATATATACATATA [CACACA_site8323] | 8.51 ± 0.28
11 | AAAATATGATATGAAAAATTTGTTATATATACATAA [CACACA_negctrl_site1529] | 8.3 ± 0.35
12 | GACATTTGTGAGCTTGAGCCGTCAAACCACTAAATA [CACACA_negctrl_site552] | 8.39 ± 0.56
13 | TAATTATAAATTATAGTGCATAAAATTGTAGCATAA | 8.53 ± 0.17
14 | TGTATTAATATGGTAATACACACTAATATACTTTTG [CACACA_site1610] | 8.24 ± 0.29
15 | AGGTCTGTTTTATATTGTACATAAAAAGTGCACATG [XGTACX_site4529] | 9.145 ± 0.007
16 | TGTTATTCGACATATACACACAAATAACAATTTAAA [CACACA_site5076] | 8.55 ± 0.53
17 | AACATAATAAAAATGGATATAATTCAAAGTTTGTAA [TGCATGCA_negctrl_site529] | 8.32 ± 0.28
18 | TGTAGAATTTCCTGAACATGCAAATAATTTTCCTTA [TGCATGCA_site881] | 8.41 ± 0.59
19 | AAAAAATTGAAGGAGTGTACATTTATACTTTATTTT [XGTACX_site8623] | 8.39 ± 0.34
20 | TTCTATAAGTATAAATGTACAAAAAAAACATCATTC [XGTACX_site5450] | 8.72 ± 0.46
21 | CTCATAATTTCTGAACGTACGTATTTCTCATTTTTA [XGTACX_site7296] | 8.83 ± 0.44
22 | CATATTCCAAGAATGTGTACATAATTTTTTTTTTTT [XGTACX_site4310] | 8.19 ± 0.32

Row | Sequence | gcPBM binding intensity (ln)
23 | ATTTTTTTTTAATGCAAAAGGTGATGATCGGTCATA [CACACA_negctrl_site959] | 8.21 ± 0.35
24 | ATGTAAATTATTATTCTATTGTTATATACACAATAT [XGTACX_negctrl_site332] | 8.61 ± 0.34
25 | TTTTCTTGATTTTGTAGTACATTTTTACGATATTTT [XGTACX_site63] | 8.75 ± 0.42
26 | CACATACATATATACACACACAAAATAATAAAATAA [CACACA_site2308] | 8.79 ± 0.38
27 | TTTTTAAAAATAACAGAAAAGAATTACAGATTTTTT [XGTACX_negctrl_site472] | 8.34 ± 0.41
28 | AAAATTATATTTTATAGAAATTTAAATAAATATATA [GTGCAC_negctrl_site199] | 8.01 ± 0.38
29 | TTTTTTACATCCATAAAACTTTTTCTCTTTTAAAAT [CACACA_negctrl_site1745] | 8.35 ± 0.46
30 | AGAGAGAAAGGTATAACATGCGATAAATTTTAGAAG [TGCATGCA_site37] | 8.88 ± 0.45
31 | ATATAGTTCGTTTATACACACATGATAAGATATTTA [CACACA_site1947] | 8.63 ± 0.38
32 | AAATCACTTTTTAAGTGTACTTGGTCTTTCTCATTT [XGTACX_site7221] | 8.36 ± 0.35
33 | CAATTAAATATATGAACACACATGTGAACTTTCTAT [CACACA_site3977] | 8.54 ± 0.42
34 | TATTAAATTATATAGACACACATTATATATATATAT [CACACA_site4345] | 9.73 ± 0.17
35 | AAATACCTGATATATACACACTATGTTTTTCTTTTT [CACACA_site6680] | 8.72 ± 0.53
36 | AAAAAGAAATATTTATGTACATAATAATAATATTTT [XGTACX_site4693] | 8.4 ± 0.35
37 | AATATAGATACATATACACACACACCCATACATATA [CACACA_site9137] | 8.87 ± 0.52
38 | GTAACAAATAAAATAACACACATGTCGAAATGTATG [CACACA_site2971] | 8.57 ± 0.5
39 | AAGAAAAACATTACGTGTACCAAAAGGCCTGTCAAC [XGTACX_site267] | 9.01 ± 0.54
40 | AAAATGGGTTAGCACATACACACCAATATATTATAT [CACACA_site3082] | 8.53 ± 0.67
41 | ATAATTATATAAATATATATAATATATATATGAAAA [XGTACX_negctrl_site357] | 8.07 ± 0.48
42 | TATAGATGTATGTACATACACACATATATAAATAAA [CACACA_site1789] | 8.63 ± 0.35
43 | TGTTAATTTATATTATGTACTTATAATTATCGTTTG [XGTACX_site1032] | 8.66 ± 0.22
44 | GTTAATTGAAGATTCACACATAAATATATATATAAT [CACACA_site5482] | 8.49 ± 0.5

Row | Sequence | gcPBM binding intensity (ln)
45 | ATTGTATGCACGTCTGCACACTTTTTTTTTTTTTTT [CACACA_site2082] | 8.72 ± 0.24
46 | TAACGCATGAATATAATATATATATATATAAAAATA [GTGCAC_negctrl_site218] | 8.43 ± 0.57
47 | ATAATTCTAAATAAATGTACACACAAAAATAAATGT [XGTACX_site3547] | 8.76 ± 0.37
48 | GTAAGATTTCTTGTTGCATGCGGTAAAAAGTAAAAT [TGCATGCA_site469] | 9.68 ± 0.28
49 | TAGATAAATGGGTATACACACATATACATAAATATA [CACACA_site375] | 8.53 ± 0.35
50 | TACACCCACCAACACACACACACACCCAAAAAAAAA [CACACA_site498] | 8.47 ± 0.38
51 | TTTATGAAACAGTGCACACATAAAAATATATACATA [CACACA_site2992] | 8.96 ± 0.13
52 | TTTATATATTTATTCACACATATAATATTCCGTCGT [CACACA_site6120] | 8.62 ± 0.53
53 | AACATACATAAACACACACACACACCCACACCCACA [CACACA_site8058] | 8.65 ± 0.65
54 | AACTTTATACTTTTTTGTACTTAACCCTTACATTTT [XGTACX_site5798] | 9.03 ± 0.55
55 | AATCTAATGTAATGCATACACACAACTATCCATCAA [CACACA_site535] | 8.57 ± 0.32
56 | TAAAATGAAGGAATATGTACATAAATAAACATATAT [XGTACX_site6266] | 8.55 ± 0.057
57 | AATATACGAAATTGTGCACACATATATTTATGTATG [CACACA_site1510] | 8.79 ± 0.099
58 | CGATATAAAGATATTAGTACATATGCATGCTTGTCT [XGTACX_site8629] | 9.03 ± 0.16
59 | CATATATGATATATTAGTACATATATATATATATAT [XGTACX_site1574] | 10.1 ± 0.29
60 | AAAAATAAAGTAAAAGCATGCTAGTATATGGAAAAT [TGCATGCA_site486] | 9.32 ± 0.45
61 | TTGAAATTAAATGACATACACACTATATTATATATT [CACACA_site3135] | 8.2 ± 0.38
62 | AGGTATATATATTTATGTACTTAAAATGAGAAAATA [XGTACX_site8337] | 8.73 ± 0.23
63 | CATATACGCAAACACACACACATATATATATATATA [CACACA_site501] | 10.2 ± 0.4
64 | TATAATAATATTTATTGTACAATTAGGTTAATTCAT [XGTACX_site1986] | 8.49 ± 0.33
65 | GCATTTTAATAATTATGTACATATATTATTCCTGGT [XGTACX_site3664] | 8.93 ± 0.4
66 | TTCCATCAAAAAATGGGTACACATTATAGAAATATT [XGTACX_site8482] | 8.68 ± 0.35

Row | Sequence | gcPBM binding intensity (ln)
67 | AAAACATACAGATATACACACATATATATATATATA [CACACA_site5091] | 10 ± 0.4
68 | ATATAGATCTACACTGCACACATTTTTAACACTGCT [CACACA_site1882] | 8.78 ± 0.38
69 | ATATTTAAACGATGGTGTACATATATTACAAGTTGT [XGTACX_site1743] | 8.86 ± 0.35
70 | ACGCATGTAATTTATACACACATTCTTTTATATTTT [CACACA_site3708] | 8.7 ± 0.36
71 | TATACATATATATATACACACATATATATATATACA [CACACA_site402] | 8.38 ± 0.3
72 | AAATTATTATCGTTAATATGTATATATGTGCCAAGT [TGCATGCA_negctrl_site557] | 8.68 ± 0.45
73 | TATAATATGAACAGTACACACAAAATAAATTCGTAT [CACACA_site3586] | 8.58 ± 0.44
74 | ATTCAAAATAATAGAATTGTTAAAGTTGTAAATTGA [CACACA_negctrl_site727] | 8.26 ± 0.43
75 | TATATTTTTATATTTTGTACATATAGTAAATATAAA [XGTACX_site4768] | 8.27 ± 0.27
76 | AAAAATAAATATACATGTACTTAAAATAATCGAATA [XGTACX_site8432] | 8.72 ± 0.42
77 | CTCAAACAATATTATATAATAAAGTACATATATATT [CACACA_negctrl_site446] | 8.62 ± 0.42
78 | GAACAGAAAAAGAATAGTACATATATATATATATAT [XGTACX_site3700] | 10 ± 0.45
79 | ACGTATCAAAAAATTTGTACATATATATATATATAT [XGTACX_site1024] | 10.1 ± 0.35
80 | AAAAATATATAAAGAAAAAGAATATAATATAAAATA [GTGCAC_negctrl_site208] | 8.53 ± 0.38
81 | ATTGTAGAATTTAATAGTACTCACGAATAAAATAAA [XGTACX_site6280] | 8.69 ± 0.3
82 | GTTTATGTTAAACCATGTACTTAATATTTTATTCTT [XGTACX_site3761] | 8.64 ± 0.28
83 | AAAAAAAAAGTATTATGTACATAAAAATAAAAAAAT [XGTACX_site4166] | 8.76 ± 0.52
84 | TATGATTCATAATAGTGTACGTAAAAATTGACTAGA [XGTACX_site5376] | 9.16 ± 0.44
85 | TATTAAAATATGTCAGTTCTTAAAAAGTTGATGAGT [GTGCAC_negctrl_site77] | 8.28 ± 0.34
86 | AAAATGTATATATAAACATGCACACGTGGTTGTATA [TGCATGCA_site847] | 9.04 ± 0.43
87 | TATCGTTATATAATATGTACATATAAAATTTAAATT [XGTACX_site1887] | 8.8 ± 0.3
88 | TATATATTATGACCACCACACACCTATACGCATAAC [CACACA_site2447] | 8.98 ± 0.54
